The subject of the data set is ATP. The data set is described as follows: switch fluorescence ratio, 500 uM ATP over buffer (Cy3 cluster intensity, sum of 5 cycles each) (fold (ratio)); higher = stronger signal-on switching upon ATP binding; sequences stand for … in TCGTCGGCAGCGTCAGATGTGTATAAGAGACAGTTTTTTTTTTTTTTTTTTTTTTTTT…TC. The following applies: aptamer strand: ATP DNA aptamer (quencher-CACCTGGGGGAGTATTGCGGAGGAAGG + anchor), 100 nM annealed; ATP concentration: 500 uM; one replicate. In outline:
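Per cluster, summed Cy3 intensity from the target cycles was divided by that from the buffer cycles to give the fluorescence ratio, then averaged per switch-domain sequence. Clusters outside 100-1000 RFU were excluded. The Cy3-labelled switching-strand clusters, on a modified Illumina MiSeq flow-cell, were annealed to 100 nM quencher-labelled ATP aptamer and imaged in selection buffer, then after 15 min with 500 uM ATP at 22 °C, for five cycles with NaOH stripping and re-annealing between them.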

Values marked as one replicate rest on one cluster of the flow cell; about a third of the high ones do not repeat.

We go through 120 sequences from the supplement of paper PMC10126150.
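Further: ATP exposure 15 min at 22 °C before imaging.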

Consider GGTGCTTCTT, for which the switch fluorescence ratio came out at 0.994.

With AAGGTTTC, the switch fluorescence ratio came out at 0.97.

Take ATATGATGAA: the switch fluorescence ratio stood at 0.962.

Turning to TGAAAGTTAT, the switch fluorescence ratio is 0.985.

Regarding TCGACTAATT, the switch fluorescence ratio came to 0.995.

Turning to ACAATTGTTG, the switch fluorescence ratio was 1.01.

TGATTCTCCC: the switch fluorescence ratio came to 1.02.

As to GAAGGAGAAT, the switch fluorescence ratio was 1.02.

Consider CTCAATTTTG, for which the switch fluorescence ratio was 0.975.

Turning to GATTAGTTGG, the switch fluorescence ratio was 1.03.

Consider ACACCTTAAT, for which the switch fluorescence ratio was determined as 1.14.

In the case of CACGAGATCC, the switch fluorescence ratio stood at 0.962.

As to GCAAGGCCGC, the switch fluorescence ratio amounted to 1.08.

Turning to GCTAGGGAAG, the switch fluorescence ratio was found to be 1.02.

As to TCATCCATGC, the switch fluorescence ratio amounted to 1.28.

Regarding TGTGCCCGTC, the switch fluorescence ratio was determined as 1.01.

Turning to TCGGGATGGG, the switch fluorescence ratio was 1.

For the sequence AAGCCTATAC, the switch fluorescence ratio came to 4.48.

As to AACGCCTTTA, the switch fluorescence ratio worked out at 1.04.

For TGCGTGACGG, the switch fluorescence ratio was determined as 1.02.

CGCGGGTTTC: the switch fluorescence ratio worked out at 1.03.

As to GGGTGGGGCC, the switch fluorescence ratio was 0.973.

In the case of AGCGGGATCT, the switch fluorescence ratio was determined as 1.02.

Consider ACTTAATGGA, for which the switch fluorescence ratio is 1.04.

On to GCGCTTCTGA, for which the switch fluorescence ratio worked out at 1.04.

As for GATAGGTCC, the switch fluorescence ratio turned out to be 1.1.

Take CTGCGTGGGC: the switch fluorescence ratio amounted to 1.04.

For GAATTCTTAA, the switch fluorescence ratio turned out to be 0.998.

Turning to ATGCCGCAGG, the switch fluorescence ratio was 1.01.

As for ATGTGACACT, the switch fluorescence ratio is 1.

In the case of CACACTCGAA, the switch fluorescence ratio stood at 1.04.

On to GCACTAAAGC, for which the switch fluorescence ratio was determined as 0.962.

For ATACTTTATG, the switch fluorescence ratio was determined as 1.04.

As to TGATTGCGGA, the switch fluorescence ratio worked out at 0.98.

As for TCGGGAGATC, the switch fluorescence ratio is 0.981.

Regarding CAACTTTGCG, the switch fluorescence ratio was found to be 0.997.

Consider CCATTTTCTT, for which the switch fluorescence ratio was found to be 0.964.

In the case of CAACACCATA, the switch fluorescence ratio is 1.07.

As to TTGAAGTCAC, the switch fluorescence ratio amounted to 1.54.

Turning to AGTCGCATAG, the switch fluorescence ratio is 1.16.

Take GTTTTGGGGC: the switch fluorescence ratio came to 0.991.

Turning to CAAAGTCTCG, the switch fluorescence ratio worked out at 1.04.

For the sequence GAAAGTCTTG, the switch fluorescence ratio is 0.974.

Regarding TTGCGCGGGT, the switch fluorescence ratio turned out to be 1.02.

Take TACCGAGCCA: the switch fluorescence ratio is 1.13.

GTGACTTAGA: the switch fluorescence ratio came out at 0.998.

CCCCACTATC: the switch fluorescence ratio is 1.77.

In the case of ATGCGCAT, the switch fluorescence ratio was 0.958.

On to GCTAGCTAG, for which the switch fluorescence ratio came to 1.01.

As for GAGAATTTCT, the switch fluorescence ratio amounted to 1.04.

Regarding CGAAGTCCGG, the switch fluorescence ratio came out at 1.

Regarding TTGCTCAATC, the switch fluorescence ratio was found to be 1.04.

In the case of GGTTATACGG, the switch fluorescence ratio was 1.05.

CGATACCGTT: the switch fluorescence ratio was 0.988.

With TCGTATCTTG, the switch fluorescence ratio came to 0.974.

Take TGTTGGGATC: the switch fluorescence ratio was 1.05.

Turning to GGAGGGGCT, the switch fluorescence ratio was 1.13.

For the sequence AGTTAGGCGG, the switch fluorescence ratio stood at 1.01.

AAGTTTCTGC: the switch fluorescence ratio came to 0.957.

With TGGGCTCTAT, the switch fluorescence ratio came to 0.982.

As to ATTTTCCAAT, the switch fluorescence ratio came to 1.02.

For the sequence ACAGCTTCGG, the switch fluorescence ratio came out at 1.

Take CTGGGTTACG: the switch fluorescence ratio was 0.951.

With TATTAGTTCA, the switch fluorescence ratio stood at 0.991.

On to CCTATTTTGT, for which the switch fluorescence ratio was 1.01.

Consider CCGCGTAGGG, for which the switch fluorescence ratio was found to be 1.14.

Consider GCGTGACGCG, for which the switch fluorescence ratio stood at 1.01.

TTCAAGACAG: the switch fluorescence ratio stood at 1.01.

Regarding TTCTCGCATC, the switch fluorescence ratio was 3.84.

As to AAGTTCAGAC, the switch fluorescence ratio was 1.02.

Take GGTGTAGGGT: the switch fluorescence ratio was 1.03.

Consider GGGGCCCCTA, for which the switch fluorescence ratio came out at 0.993.

TTGAATTGCA: the switch fluorescence ratio amounted to 0.998.

In the case of ATATCGTTGG, the switch fluorescence ratio turned out to be 0.963.

Turning to TGTGTTCGAG, the switch fluorescence ratio worked out at 0.969.

With CGACGGGGGC, the switch fluorescence ratio turned out to be 1.08.

AAGTATAGAA: the switch fluorescence ratio was determined as 0.966.

CCTATTAGTC: the switch fluorescence ratio was found to be 0.984.

Consider TGTAAGAAGT, for which the switch fluorescence ratio turned out to be 1.01.

On to TATAGCTAGG, for which the switch fluorescence ratio came to 1.03.

Consider ACACAGCTGT, for which the switch fluorescence ratio amounted to 0.997.

GGTACATCGC: the switch fluorescence ratio was found to be 1.

With GCTCCTTCAT, the switch fluorescence ratio is 1.13.

Turning to GGGGCCTTAA, the switch fluorescence ratio amounted to 1.

Turning to CCGATAGGA, the switch fluorescence ratio turned out to be 0.984.

On to TAGATTAAA, for which the switch fluorescence ratio came to 0.992.

For CACCACTCGC, the switch fluorescence ratio came out at 0.983.

With TCAGTTGGTC, the switch fluorescence ratio is 1.04.

On to ATTGTGTATA, for which the switch fluorescence ratio is 1.05.

On to TGAATACCCT, for which the switch fluorescence ratio was found to be 1.05.

As to ACTTTATGCC, the switch fluorescence ratio amounted to 1.02.

In the case of TGTCGGTTTC, the switch fluorescence ratio was found to be 0.986.

ACTGTACCCC: the switch fluorescence ratio was 1.6.

As to ATAGGTAGCT, the switch fluorescence ratio worked out at 0.992.

With AGCATTCGGG, the switch fluorescence ratio was determined as 1.06.

Take CGGGGTTAGG: the switch fluorescence ratio was determined as 0.998.

As for ATGTATGAGA, the switch fluorescence ratio stood at 0.988.

Turning to CGGTCATAAC, the switch fluorescence ratio turned out to be 1.08.

Take ACGGGAGCAG: the switch fluorescence ratio was determined as 1.06.

With TTTCGTACA, the switch fluorescence ratio worked out at 1.04.

Take AATAGGCAGT: the switch fluorescence ratio was determined as 1.01.

In the case of TGTTCGCTCA, the switch fluorescence ratio was found to be 0.993.

In the case of GCACCAATAG, the switch fluorescence ratio worked out at 1.33.

As to CGAATTAACG, the switch fluorescence ratio came out at 0.985.

On to GTGGATCTCA, for which the switch fluorescence ratio stood at 0.967.

On to CTTAGAAAGG, for which the switch fluorescence ratio is 0.957.

Consider TACCCCGGTG, for which the switch fluorescence ratio worked out at 2.26.

With ATAAGTTAG, the switch fluorescence ratio came out at 1.01.

For TACAGTGAAC, the switch fluorescence ratio stood at 0.992.

With TTTGCTTGTT, the switch fluorescence ratio was 1.04.

Consider AAAACTAGTA, for which the switch fluorescence ratio came out at 1.01.

For the sequence AGGGCAGAAT, the switch fluorescence ratio came out at 0.988.

On to CTGCGGATAT, for which the switch fluorescence ratio amounted to 1.33.

Regarding GGCTGTTTAG, the switch fluorescence ratio was 1.

For the sequence TAAATCAATG, the switch fluorescence ratio turned out to be 1.01.

With TTCACAGTG, the switch fluorescence ratio is 1.02.

With TGAGATCGTC, the switch fluorescence ratio amounted to 1.01.

As to ACCAGAGTCC, the switch fluorescence ratio was 1.1.

Turning to TTGATTTGAG, the switch fluorescence ratio is 1.01.

For the sequence AGTGTTAATC, the switch fluorescence ratio amounted to 0.993.
